# Experimental data published in PubChem BioAssay (Tox21).
# Several values for one entry are separate records, joined by “and”; a condition that tells them apart may be missing. Equal entries are not always repeated. Inconclusive results, whose numbers are uncertain, are shown with a selection of clear calls. For part of these data: Where the call is inconclusive, the potency comes from a doubtful curve fit. Activity calls are given as the source filed them. Unless noted, calls come from the whole dose curve; as a rule, active = well fitted curve in the direction sought with a large enough effect in the repeat runs; inconclusive = weak or mixed curves; inactive = no such curve, though single readings can be large; an effect the other way counts as inactive or inconclusive.
# Experiments:
# [1] = biological target: Androgen receptor (Homo sapiens) (UniProt P10275); assay: qHTS assay to identify small molecule antagonists of the androgen receptor (AR) signaling pathway (AID 743035; active = well fitted inhibition curve with a large enough effect in the signal ratio in the repeat runs, not every such curve was filed as active; inconclusive = weak or mixed curves, or effect the other way; inactive = no such curve, though single readings can be large or run the other way; the % refers to the signal ratio; note: potency is the fitted concentration of half-maximal effect; for activity change, negative = inhibition: % is set by controls: 0 for no effect and ±100 for the full control effect); settings: HEK293 AR-UAS-bla, R1881-stimulated, beta-lactamase FRET, 16 h; activity change, negative = inhibition: at 58.5 µM (top of the series) unless noted
# How it was run: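 Antagonism is scored as loss of R1881-driven beta-lactamase reporter expression in HEK293 cells carrying the reporter under a UAS element, after 16 h co-treatment at 37C and a 2 h room-temperature FRET substrate read.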
# [2] = biological target: Androgen receptor (Homo sapiens) (UniProt P10275); assay: qHTS assay to identify small molecule agonists of the androgen receptor (AR) signaling pathway (AID 743036; active = well fitted activation curve with a large enough effect in the signal ratio in the repeat runs, with a control signal flat, not every such curve was filed as active; inconclusive = weak or mixed curves, or effect the other way; inactive = no such curve, though single readings can be large or run the other way; the % refers to the signal ratio; note: potency is the fitted concentration of half-maximal effect; for activation: % is set by controls: 0 for no effect and ±100 for the full control effect); settings: HEK293 AR-UAS-bla GripTite, beta-lactamase FRET ratio, 16 h; activation: at 62.4 µM (top of the series) unless noted
# How it was run: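 Screening used 2,000 AR-bla HEK293 cells per well, treated 16 h at 37C with test compounds in DMSO alongside positive and DMSO-only controls; beta-lactamase activity was then read by LiveBLAzer B/G FRET fluorescence after 2 h at room temperature.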
# [3] = qHTS assay to identify small molecule antagonists of the androgen receptor (AR) signaling pathway using the MDA cell line - cell viability counter screen (AID 743041; note: potency is the fitted concentration of half-maximal effect; nearly all actives have a fitted effect of over 45% in size); settings: MDA-kb2 viability, CellTiter-Fluor, 16 h, cells co-treated with R1881 androgen agonist; viability change, negative = cytotoxic: at 70.3 µM (top of the series) unless noted
# How it was run: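 MDA-kb2 AR-luc cells (MMTV-luciferase, AR/GR responsive) treated with compounds plus R1881 agonist for 16 h at 37C. CellTiter-Fluor added at 15.5 h; fluorescence read after 30 min in the same wells.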
# [4] = biological target: Androgen receptor (Homo sapiens) (UniProt P10275); assay: qHTS assay to identify small molecule antagonists of the androgen receptor (AR) signaling pathway using the MDA cell line (AID 743042; note: nearly all actives have a fitted effect of over 55% in size; note: potency is the fitted concentration of half-maximal effect)
# How it was run: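 MDA-kb2 breast carcinoma cells carrying MMTV-luciferase (AR/GR responsive) were co-treated with compounds and the agonist R1881 for 16 h at 37C. Inhibition read as ONE-Glo luminescence; CellTiter-Fluor fluorescence measured in parallel for cytotoxicity.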
# [5] = qHTS assay to identify small molecule antagonists of the thyroid receptor (TR) signaling pathway - cell viability counter screen (AID 743064); settings: GH3.TRE-Luc viability, CellTiter-Fluor, 24 h; activity change, negative = cytotoxic: at 70.3 µM (top of the series); note: potency is the fitted concentration of half-maximal effect; nearly all actives have a fitted effect of over 50% in size
# How it was run: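 Viability of T3-stimulated (1 nM final) GH3.TRE-Luc cells is measured by CellTiter-Fluor fluorescence after 23.5 h compound exposure at 37 °C plus 30 min reagent incubation.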
# [6] = biological target: Estrogen receptor (Homo sapiens) (UniProt P03372); assay: qHTS assay to identify small molecule antagonists of the estrogen receptor alpha (ER-alpha) signaling pathway (AID 743069; active = well fitted curve in the direction sought with a large enough effect in the signal ratio in the repeat runs, not every such curve was filed as active; inconclusive = weak or mixed curves, or effect the other way; inactive = no such curve, though single readings can be large or run the other way; the % refers to the signal ratio; note: potency is the fitted concentration of half-maximal effect; for activity, negative = inhibition: % is set by controls: 0 for no effect and ±100 for the full control effect); settings: HEK293 ER-alpha-UAS-bla, beta-lactamase ratio, antagonist mode; activity, negative = inhibition: at 69.4 µM (top of the series)
# How it was run: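 HEK293 ER-alpha-UAS-bla GripTite cells, held overnight in 2% charcoal-stripped FBS, 5,000 cells/well, preincubated 4 h, then compound plus 17beta-estradiol for 18 h at 37C. Beta-lactamase read by LiveBLAzer B/G FRET substrate, 2 h at room temperature.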
# [7] = qHTS assay to identify small molecule antagonists of the estrogen receptor alpha (ER-alpha) signaling pathway - cell viability counter screen (AID 743074; calls by dose curve;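 note: HEK293 cells carrying ER-alpha-UAS-bla reporter stimulated with 17beta-estradiol; potency is the fitted concentration of half-maximal effect; nearly all actives have a fitted effect of over 45% in size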)
# [8] = biological target: Estrogen receptor (Homo sapiens) (UniProt P03372); assay: qHTS assay to identify small molecule agonists of the estrogen receptor alpha (ER-alpha) signaling pathway using the BG1 cell line (AID 743079); settings: BG1Luc4E2 cells, ERE-luciferase agonist, 22 h; activation: at 70.3 µM (top of the series) unless noted; note: nearly all actives have a fitted effect of over 20% in size; note: potency is the fitted concentration of half-maximal effect
# [9] = qHTS assay to identify small molecule antagonists of the estrogen receptor alpha (ER-alpha) signaling pathway using the BG1 cell line - cell viability counter screen (AID 743081);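 note: compound given together with 17beta-estradiol as the ER stimulus; potency is the fitted concentration of half-maximal effect; nearly all actives have a fitted effect of over 45% in size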
# [10] = biological target: Aromatase (Homo sapiens) (UniProt P11511); assay: qHTS assay to identify aromatase inhibitors (AID 743083); note: nearly all actives have a fitted effect of over 55% in size; note: potency is the fitted concentration of half-maximal effect
# [11] = biological target: Peroxisome proliferator-activated receptor gamma (Homo sapiens) (UniProt P37231); assay: qHTS assay to identify small molecule agonists of the peroxisome proliferator-activated receptor gamma (PPARg) signaling pathway (AID 743094; active = well fitted activation curve with a large enough effect in the signal ratio in the repeat runs, not every such curve was filed as active; inconclusive = weak or mixed curves, or effect the other way; inactive = no such curve, though single readings can be large or run the other way; the % refers to the signal ratio; note: potency is the fitted concentration of half-maximal effect); settings: HEK293H PPARg-UAS-bla, beta-lactamase FRET ratio, 17 h; activation: at 57 µM (top of the series) unless noted
# How it was run: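 Quantitative HTS agonist mode: stable HEK293H line with UAS-beta-lactamase reporter under PPARg control, 17 h compound exposure at 37C, fluorescence after 1 h FRET substrate loading at room temperature.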
# [12] = biological target: Peroxisome proliferator-activated receptor gamma (Homo sapiens) (UniProt P37231); assay: qHTS assay to identify small molecule antagonists of the peroxisome proliferator-activated receptor gamma (PPARg) signaling pathway (AID 743191; calls by dose curve; note: nearly all actives have a fitted effect of over 30% in size; note: potency is the fitted concentration of half-maximal effect); settings: HEK293H PPARg-UAS-bla, beta-lactamase ratio, antagonist, 17 h; ratio activity, negative = inhibition: at 62.6 µM (top of the series) unless noted
# How it was run: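 GeneBLAzer PPARg UAS-bla HEK293H cells, 5 h post-plating, exposed to compounds 17 h at 37C. LiveBLAzer B/G FRET substrate added for 1 h at room temperature; beta-lactamase reporter read by fluorescence intensity.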
# [13] = qHTS assay to identify small molecule antagonists of the thyroid receptor (TR) signaling pathway (AID 743065); note: potency is the fitted concentration of half-maximal effect; nearly all actives have a fitted effect of over 55% in size
# How it was run: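 GH3.TRE-Luc rat pituitary cells (two TREs driving luciferase) were dosed with compound, then stimulated with 1 nM T3 (final) for 23.5 h at 37 C. ONE-Glo luminescence was the read-out, with CellTiter-Fluor fluorescence as the cytotoxicity counter-screen.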
# [14] = system: thyroid hormone receptor (rat, GH3 cells); assay: qHTS assay to identify small molecule agonists of the thyroid receptor (TR) signaling pathway (AID 743066; calls by dose curve; note: potency is the fitted concentration of half-maximal effect; for activation: % is set by controls: 0 for no effect and ±100 for the full control effect); settings: GH3.TRE-Luc cells, TR agonist luciferase, 24 h; activation: at 83.9 µM (top of the series) unless noted
# [15] = qHTS assay to identify small molecule antagonists of the estrogen receptor alpha (ER-alpha) signaling pathway using the BG1 cell line (AID 743080; calls by dose curve;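 note: BG1 cells stimulated with 17beta-estradiol alongside compound; potency is the fitted concentration of half-maximal effect; nearly all actives have a fitted effect of over 25% in size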); settings: BG1Luc4E2 ERE-luciferase antagonist mode, luminescence; activity change, negative = inhibition: at 70.3 µM (top of the series) unless noted
# How it was run: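 BG1-Luc-4E2 cells (endogenous full-length ER-alpha, 4xERE luciferase) hormone-starved 5 days in charcoal-stripped FBS, plated 4,000/well for 24 h, then compound plus 17beta-estradiol for 21.5 h at 37 C; ONE-Glo luminescence read.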
# [16] = qHTS assay to identify aromatase inhibitors - cell viability counter screen (AID 743084);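 note: cells stimulated with testosterone during compound exposure; potency is the fitted concentration of half-maximal effect; nearly all actives have a fitted effect of over 55% in size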
# [17] = biological target: Aryl hydrocarbon receptor (Homo sapiens) (UniProt P35869); assay: qHTS assay to identify small molecule that activate the aryl hydrocarbon receptor (AhR) signaling pathway (AID 743085); note: nearly all actives have a fitted effect of over 15% in size; note: potency is the fitted concentration of half-maximal effect
# How it was run: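 A multiplexed format paired cell viability (CellTiter-Fluor fluorescence) with AhR-dependent luciferase output (ONE-Glo luminescence) in the same wells of HepG2 DRE-luc cells after 24 h compound exposure at 37C.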
# [18] = biological target: Androgen receptor (Homo sapiens) (UniProt P10275); assay: qHTS assay to identify small molecule agonists of the androgen receptor (AR) signaling pathway using the MDA cell line (AID 743040; note: % is set by controls: 0 for no effect and ±100 for the full control effect; nearly all actives have a fitted effect of over 20% in size); settings: MDA-kb2 AR-luc cells, MMTV luciferase, 16 h; activity change: at 70.3 µM (top of the series), stronger effect = higher value
# How it was run: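 MDA-kb2 breast carcinoma cells carrying MMTV-luciferase (responsive to AR and GR), plated 5 h then treated 16 h with compounds at 37C, 0% CO2. Read-out was ONE-Glo luminescence after 30 min at room temperature.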
# [19] = qHTS assay to identify small molecule that activate the aryl hydrocarbon receptor (AhR) signaling pathway - cell viability counter screen (AID 743086); note: potency is the fitted concentration of half-maximal effect; nearly all actives have a fitted effect of over 45% in size
# How it was run: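 HepG2-AhR-luc (HG2L7.5c1) cells, 4000/well, treated 24 h at 37 C with compound; viability measured as CellTiter-Fluor fluorescence after 30 min in the same wells as the luciferase read.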
# Tags give direction and shape of the fitted curve or compound fluorescence and quenching.
# Sequence of UniProt P37231 (P37231 whole entry, looked up): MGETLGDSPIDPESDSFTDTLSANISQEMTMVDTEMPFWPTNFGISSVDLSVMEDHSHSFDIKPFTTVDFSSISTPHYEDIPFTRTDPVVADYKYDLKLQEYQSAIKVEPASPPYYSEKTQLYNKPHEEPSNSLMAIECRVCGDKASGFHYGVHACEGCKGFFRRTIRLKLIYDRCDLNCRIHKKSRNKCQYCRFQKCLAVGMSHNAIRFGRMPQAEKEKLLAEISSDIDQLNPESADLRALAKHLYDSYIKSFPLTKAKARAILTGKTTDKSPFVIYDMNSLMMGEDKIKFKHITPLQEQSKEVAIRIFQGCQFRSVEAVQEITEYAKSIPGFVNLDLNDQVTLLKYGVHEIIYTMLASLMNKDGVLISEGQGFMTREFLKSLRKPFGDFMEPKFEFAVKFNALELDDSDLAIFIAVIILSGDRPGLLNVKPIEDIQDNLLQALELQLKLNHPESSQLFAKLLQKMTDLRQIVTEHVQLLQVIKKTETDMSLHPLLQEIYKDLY
# Sequence of UniProt P35869 (P35869 whole entry, looked up): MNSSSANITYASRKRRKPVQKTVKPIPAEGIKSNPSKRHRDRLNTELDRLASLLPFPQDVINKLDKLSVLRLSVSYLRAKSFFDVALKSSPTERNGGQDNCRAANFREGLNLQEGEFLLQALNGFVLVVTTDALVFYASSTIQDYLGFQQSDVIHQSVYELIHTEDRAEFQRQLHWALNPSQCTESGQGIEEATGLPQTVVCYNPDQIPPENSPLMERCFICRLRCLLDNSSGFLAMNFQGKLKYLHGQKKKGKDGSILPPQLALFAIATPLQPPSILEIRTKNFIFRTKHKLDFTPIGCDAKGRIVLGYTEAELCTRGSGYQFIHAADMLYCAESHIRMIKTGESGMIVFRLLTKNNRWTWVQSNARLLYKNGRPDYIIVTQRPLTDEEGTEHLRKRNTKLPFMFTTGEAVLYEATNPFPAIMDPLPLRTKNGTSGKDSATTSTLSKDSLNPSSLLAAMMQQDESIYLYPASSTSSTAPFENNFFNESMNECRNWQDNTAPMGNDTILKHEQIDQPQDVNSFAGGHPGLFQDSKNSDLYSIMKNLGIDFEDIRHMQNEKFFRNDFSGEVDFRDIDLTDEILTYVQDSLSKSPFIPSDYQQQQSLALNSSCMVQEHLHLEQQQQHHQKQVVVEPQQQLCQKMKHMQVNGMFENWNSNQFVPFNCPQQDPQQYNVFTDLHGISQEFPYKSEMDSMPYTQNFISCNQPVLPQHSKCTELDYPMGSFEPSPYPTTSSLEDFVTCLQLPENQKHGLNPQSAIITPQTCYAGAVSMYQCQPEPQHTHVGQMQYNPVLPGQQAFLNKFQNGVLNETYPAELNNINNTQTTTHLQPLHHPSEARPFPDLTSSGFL
# Sequence of UniProt P10275 (P10275 whole entry, looked up): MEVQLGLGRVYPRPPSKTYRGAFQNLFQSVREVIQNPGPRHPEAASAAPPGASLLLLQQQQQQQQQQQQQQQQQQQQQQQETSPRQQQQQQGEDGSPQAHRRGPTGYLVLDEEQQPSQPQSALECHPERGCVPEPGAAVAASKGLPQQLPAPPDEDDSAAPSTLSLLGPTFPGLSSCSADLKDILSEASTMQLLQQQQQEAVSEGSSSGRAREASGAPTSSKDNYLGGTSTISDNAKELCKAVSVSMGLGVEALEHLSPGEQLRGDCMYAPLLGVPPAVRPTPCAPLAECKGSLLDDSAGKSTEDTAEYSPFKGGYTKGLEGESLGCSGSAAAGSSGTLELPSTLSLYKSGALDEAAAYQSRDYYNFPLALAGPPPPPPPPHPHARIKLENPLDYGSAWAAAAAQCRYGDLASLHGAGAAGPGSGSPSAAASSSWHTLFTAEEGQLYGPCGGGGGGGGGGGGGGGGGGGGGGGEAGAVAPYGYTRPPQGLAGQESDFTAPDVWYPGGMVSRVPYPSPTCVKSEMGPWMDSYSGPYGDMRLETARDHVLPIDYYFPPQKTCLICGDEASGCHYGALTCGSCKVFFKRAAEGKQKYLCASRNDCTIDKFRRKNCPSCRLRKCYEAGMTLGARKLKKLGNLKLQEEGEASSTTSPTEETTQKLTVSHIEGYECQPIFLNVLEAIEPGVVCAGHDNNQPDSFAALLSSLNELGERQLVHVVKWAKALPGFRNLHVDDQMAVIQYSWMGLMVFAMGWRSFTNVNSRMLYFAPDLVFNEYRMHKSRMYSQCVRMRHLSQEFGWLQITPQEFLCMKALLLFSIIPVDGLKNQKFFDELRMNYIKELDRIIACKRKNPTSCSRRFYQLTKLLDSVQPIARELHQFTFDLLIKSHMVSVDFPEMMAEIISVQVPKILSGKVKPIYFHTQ
# Sequence of UniProt P03372 (P03372 whole entry, looked up): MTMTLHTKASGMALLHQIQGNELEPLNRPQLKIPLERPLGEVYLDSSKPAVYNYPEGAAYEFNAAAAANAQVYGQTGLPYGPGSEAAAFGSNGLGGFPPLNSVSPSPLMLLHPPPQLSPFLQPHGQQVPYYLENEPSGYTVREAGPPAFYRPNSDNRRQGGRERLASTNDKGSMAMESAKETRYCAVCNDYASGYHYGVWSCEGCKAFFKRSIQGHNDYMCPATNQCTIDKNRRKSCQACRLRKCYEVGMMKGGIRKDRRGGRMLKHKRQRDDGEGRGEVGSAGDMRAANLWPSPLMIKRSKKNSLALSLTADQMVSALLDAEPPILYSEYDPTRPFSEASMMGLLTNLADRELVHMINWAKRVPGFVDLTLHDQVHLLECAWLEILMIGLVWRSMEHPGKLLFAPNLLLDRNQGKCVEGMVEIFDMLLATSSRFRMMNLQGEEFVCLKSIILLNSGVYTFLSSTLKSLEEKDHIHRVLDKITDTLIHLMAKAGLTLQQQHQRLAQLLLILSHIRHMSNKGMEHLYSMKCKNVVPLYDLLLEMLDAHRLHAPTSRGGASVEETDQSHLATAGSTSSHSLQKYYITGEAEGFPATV
# Sequence of UniProt P11511 (P11511 whole entry, looked up): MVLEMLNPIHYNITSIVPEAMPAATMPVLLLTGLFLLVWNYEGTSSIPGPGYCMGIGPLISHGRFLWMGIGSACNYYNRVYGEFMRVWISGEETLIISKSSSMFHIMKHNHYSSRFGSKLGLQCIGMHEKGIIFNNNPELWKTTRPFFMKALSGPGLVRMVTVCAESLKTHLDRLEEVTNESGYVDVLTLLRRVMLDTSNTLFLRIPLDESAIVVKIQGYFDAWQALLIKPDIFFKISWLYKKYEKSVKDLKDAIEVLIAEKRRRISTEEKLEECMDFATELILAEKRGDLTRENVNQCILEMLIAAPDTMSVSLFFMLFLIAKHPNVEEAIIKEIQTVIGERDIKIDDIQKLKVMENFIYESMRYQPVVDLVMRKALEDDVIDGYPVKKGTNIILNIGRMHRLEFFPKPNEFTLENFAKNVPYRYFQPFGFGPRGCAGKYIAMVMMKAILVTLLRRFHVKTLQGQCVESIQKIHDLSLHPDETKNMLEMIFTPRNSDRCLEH
structure (smiles),measurement,setting,value
O=[N+]([O-])c1ccc(Cl)c([N+](=O)[O-])c1,Potency,[1],active: 9.92 µM and active: 19.5 µM
same,Potency,[2],inconclusive: 19.5 µM [activator]
same,activation,[2],inconclusive: 3.75% [at 79.1 µM]
same,Potency,[3],active: 15.6 µM and active: 13.7 µM
same,Potency,[4],active: 8.77 µM and active: 8.63 µM
same,Potency,[5],active: 15.6 µM and active: 6.11 µM
same,Potency,[6],inconclusive: 55.8 µM and inconclusive: 49 µM [partial curve]
same,Potency,[7],active: 49.7 µM and active: 24.5 µM
same,Potency,[8],"inconclusive: 43.9 µM [inhibitor, partial curve] and inconclusive: 61.1 µM [inhibitor, partial curve]"
same,Potency,[9],active: 62.1 µM and active: 61.1 µM
same,Potency,[10],active: 6.21 µM and active: 8.63 µM
same,Potency,[11],"inconclusive: 62.6 µM and inconclusive: 30.9 µM [activator, full curve]"
same,Potency,[12],active: 8.85 µM and active: 8.71 µM
COP(=O)(OC)OC(Br)C(Cl)(Cl)Br (stereo not given),Potency,[1],"inconclusive: 61.6 µM [falling, single point]"
same,"activity change, negative = inhibition",[1],inconclusive: -79.1%
same,Potency,[2],"inconclusive: 43.7 µM [activator, partial curve] and inconclusive: 49 µM [activator, partial curve]"
same,Potency,[13],active: 54.5 µM and active: 48.6 µM
same,activation,[14],inconclusive: -9.05% [phenotype inactive]
same,Potency,[6],"inconclusive: 19.5 µM [activator, partial curve]"
same,"activity, negative = inhibition",[6],inconclusive: 34%
same,activation,[8],inconclusive: 1.01% [phenotype inactive]
same,Potency,[15],"inconclusive: 54.5 µM [rising, partial curve] and inconclusive: 61.1 µM [rising, partial curve]"
same,Potency,[16],"inconclusive: 68.6 µM [cytotoxic, single point]"
same,Potency,[11],"inconclusive: 17.4 µM [activator, full curve] and active: 54.9 µM"
same,Potency,[12],"inconclusive: 43.7 µM [rising, partial curve]"
Cc1ccc(OP(=O)(Oc2ccccc2)Oc2ccccc2)cc1,Potency,[1],"inconclusive: 12.5 µM [rising, full curve, poor fit]"
same,Potency,[2],"inconclusive: 22.2 µM [cytotoxic, single point]"
same,Potency,[3],"inconclusive: 62 µM [rising, single point]"
same,Potency,[4],inactive
same,Potency,[6],inactive
same,Potency,[7],"inconclusive: 55.7 µM [cytotoxic, single point]"
same,Potency,[8],active: 3.91 µM
same,Potency,[17],"inconclusive: 62 µM [activator, partial curve, poor fit]"
same,Potency,[11],inactive
same,Potency,[12],"inconclusive: 39.5 µM [inhibitor, partial curve, poor fit]"
C[C@]12C=CC3=C4CCC(=O)C=C4CC[C@H]3[C@@H]1CC[C@@H]2O,Potency,[1],inconclusive: 61.2 µM
same,Potency,[2],active: 0.0027 µM
same,activity change,[18],active: 189%
same,Potency,[10],inactive
same,Potency,[11],"inconclusive: 61.2 µM [rising, partial curve, poor fit]"
same,Potency,[12],"inconclusive: 61.2 µM [fluorescent, single point]"
C[CH2][Hg][S]c1ccccc1C(=O)O,Potency,[1],active: 9.52 µM and active: 3.09 µM
same,Potency,[2],"inconclusive: 15.1 µM [fluorescent, single point] and inconclusive: 12.3 µM [fluorescent, single point]"
same,Potency,[3],active: 9.87 µM and active: 8.63 µM
same,Potency,[13],active: 335 nM and active: 243 nM
same,activation,[14],inconclusive: -8.52% [phenotype inactive] and inconclusive: -8.84% [phenotype inactive]
same,Potency,[7],active: 13.4 µM and active: 12.3 µM
same,Potency,[9],active: 21.1 µM and active: 17.2 µM
same,Potency,[19],active: 16.8 µM and active: 6.86 µM
N#CSCSC#N,Potency,[1],"inconclusive: 50.1 µM [falling, single point]"
same,"activity change, negative = inhibition",[1],inconclusive: -70.3%
same,Potency,[2],"inconclusive: 11.2 µM [activator, full curve] and inconclusive: 61.1 µM [fluorescent, single point]"
same,Potency,[14],"inconclusive: 10.8 µM [inhibitor, partial curve, poor fit]"
same,activation,[14],inconclusive: -1.35% [phenotype inactive] [at 95.2 µM]
same,Potency,[7],"inconclusive: 25.1 µM [cytotoxic, full curve]"
same,Potency,[9],"inconclusive: 70.1 µM [cytotoxic, single point]"
same,Potency,[17],"inconclusive: 27.9 µM [activator, partial curve, poor fit] and inactive"
same,Potency,[11],"inconclusive: 63.1 µM [fluorescent, single point] and inconclusive: 61.1 µM [single point]"
same,Potency,[12],"inconclusive: 54.4 µM [cytotoxic, single point]"
same,"ratio activity, negative = inhibition",[12],inconclusive: -24.2% [at 81.1 µM]
